# Assay results: PubChem BioAssay AID504332 (National Center for Advancing Translational Sciences (NCATS), 2011)
# Several values for one entry are separate records, joined by “and”; a condition that tells them apart may be missing. Identical values can stand only once. Screen size: about 350,000 compounds; about 31,000 (8.9%) were called active. The shares of active, inactive and inconclusive entries below differ from those in the screen. Calls come from the whole dose curve; as a rule, active = well fitted inhibition curve with a large enough effect; inconclusive = small, poorly fitted or top-dose-only effect; inactive = no such curve, though single readings can be large or run the other way. Where the call is inconclusive, the potency comes from a doubtful curve fit. Where a structure was tested more than once in an assay, its records may differ in their call.
# Molecular target: Histone-lysine N-methyltransferase EHMT2 (Homo sapiens) (UniProt Q96KQ7)
# Sequence of UniProt Q96KQ7 (Q96KQ7 whole entry, looked up): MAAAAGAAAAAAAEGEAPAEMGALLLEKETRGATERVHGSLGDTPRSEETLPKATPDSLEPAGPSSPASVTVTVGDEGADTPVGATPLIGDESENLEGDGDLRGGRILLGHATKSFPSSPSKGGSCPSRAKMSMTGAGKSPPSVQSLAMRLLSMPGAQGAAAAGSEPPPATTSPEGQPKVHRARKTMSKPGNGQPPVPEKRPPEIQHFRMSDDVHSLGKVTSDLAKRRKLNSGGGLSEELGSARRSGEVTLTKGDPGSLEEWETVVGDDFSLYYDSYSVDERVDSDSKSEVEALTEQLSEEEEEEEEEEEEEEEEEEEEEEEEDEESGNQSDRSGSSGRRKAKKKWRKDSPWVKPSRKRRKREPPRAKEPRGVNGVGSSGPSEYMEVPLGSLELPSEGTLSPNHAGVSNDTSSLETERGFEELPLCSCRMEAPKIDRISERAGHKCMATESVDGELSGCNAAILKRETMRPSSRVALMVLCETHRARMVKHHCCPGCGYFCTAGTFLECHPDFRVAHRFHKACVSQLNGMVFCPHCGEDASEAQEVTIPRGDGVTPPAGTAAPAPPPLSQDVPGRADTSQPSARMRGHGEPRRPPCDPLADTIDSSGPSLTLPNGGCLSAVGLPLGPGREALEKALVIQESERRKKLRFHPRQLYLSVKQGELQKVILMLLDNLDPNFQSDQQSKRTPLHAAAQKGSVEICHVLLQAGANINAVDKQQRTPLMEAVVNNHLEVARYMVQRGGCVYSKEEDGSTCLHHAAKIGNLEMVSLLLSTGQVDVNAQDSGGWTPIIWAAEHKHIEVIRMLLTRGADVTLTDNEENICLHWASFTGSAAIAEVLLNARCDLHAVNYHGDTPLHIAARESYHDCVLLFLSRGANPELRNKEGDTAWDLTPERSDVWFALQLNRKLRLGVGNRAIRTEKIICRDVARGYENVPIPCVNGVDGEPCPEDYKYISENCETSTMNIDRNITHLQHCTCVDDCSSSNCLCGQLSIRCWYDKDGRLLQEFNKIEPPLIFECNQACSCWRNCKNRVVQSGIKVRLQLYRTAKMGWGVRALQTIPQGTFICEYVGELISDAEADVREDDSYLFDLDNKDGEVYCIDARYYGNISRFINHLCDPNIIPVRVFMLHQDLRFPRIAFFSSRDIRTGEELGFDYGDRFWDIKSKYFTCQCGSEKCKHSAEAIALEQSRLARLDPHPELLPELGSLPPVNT
# Assay: qHTS Assay for Inhibitors of Histone Lysine Methyltransferase G9a; note: nearly all actives have a fitted effect of over 75% in size
# Settings: G9a H3K9 monomethylation, AlphaScreen, 2 h; activity, negative = inhibition: at 59 µM (top of the series) unless noted
# Procedure, shortened: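 Readings reflect AlphaScreen signal from monomethyl-H3K9 antibody detection. HMT at 20 nM; substrate b-H3K9 500 nM; cofactor SAM 20 uM; 2 h RT reaction; compounds tested as titrations in qHTS with 15 min preincubation.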
# % is set by controls: 0 for no effect and ±100 for the full control effect; potency is the fitted concentration of half-maximal effect; tags give direction and shape of the fitted curve.
SMILES,Potency,"activity, negative = inhibition"
COc1ccc(Nc2nc(N3CCN(C)CC3)nc3ccccc23)c(OC)c1,"inconclusive: 44.7 µM [inhibitor, partial curve]",
CCOP(=O)(c1ccccc1)C(O)c1ccc(F)cc1 (configuration not stated),active: 0.631 µM,
Oc1cc2c(cc1CN1CCN(c3ccccc3)CC1)OCO2,active: 10 µM,
Cc1ccccc1CC(=O)N(CCN(C)C)CC1CCCN(Cc2ccccc2F)C1 (configuration not stated),,inactive: -3% [at 102 µM]
Cc1cc(OCC(=O)NCc2ccncc2)c2c3c(c(=O)oc2c1)CCCC3,,inactive: 17.8% [at 102 µM]
CC1CC2OC2/C=C\C=C/C(=O)Cc2c(Cl)c(O)cc(O)c2C(=O)O1 (configuration not stated),"inconclusive: 17.8 µM [inhibitor, partial curve]",
COc1ccccc1N1CCN(Cc2c(F)cccc2Cl)CC1,"inconclusive: 79.4 µM [inhibitor, single point]",
O=C(NC(Cc1cnc[nH]1)C(=O)O)c1ccccc1 (configuration not stated),"inconclusive: 89.1 µM [inhibitor, single point]",
COc1ccc(C2CC(c3c(O)n(CCc4ccccc4)c(=O)[nH]c3=O)=NN2)cc1OC (configuration not stated),active: 56.2 µM,
Fc1ccccc1CNCCc1c[nH]c2ccccc12,"inconclusive: 89.1 µM [inhibitor, single point]",
O=c1[nH]c(O)c(Cc2ccc3c(c2)OCO3)c(=O)[nH]1,,inactive: 3.33% [at 102 µM]
Cc1cccc(Cn2cccc(C(=O)Nc3ccc4c(c3)OCCO4)c2=O)c1,"inconclusive: 3.98 µM [inhibitor, partial curve, poor fit]",
Cc1ccccc1N1C(=O)NC(=O)/C(=C\c2cc(Br)c(N3CCOCC3)o2)C1=O,"inconclusive: 25.1 µM [inhibitor, single point]",
CCN(CC)C(=O)c1ccc(NC(=O)c2cccc(C(F)(F)F)c2)cc1,,inactive: 15.1% [at 102 µM]
CC(=O)Nc1c(I)c(C(=O)O)c(I)c(N(C)C(C)=O)c1I,"inconclusive: 1.58 µM [inhibitor, partial curve, poor fit]",
Cn1cc(C(=O)OCC(=O)NC2CCCCC2)c2ccccc21,,inactive: 35.3% [at 12.7 µM]
COC(=O)c1c(C)n(Cc2ccco2)c2ccc(O)cc12,,inconclusive: -82.7% [inhibitor]
Cc1cccc(N2C(=O)NC(=O)/C(=C/c3ccc(N4CCOCC4)cc3)C2=O)c1,"inconclusive: 50.1 µM [inhibitor, partial curve, poor fit]",
CC(=O)c1c(O)c(C)c(O)c(Cc2c(O)c3c(c(C(=O)/C=C/c4ccccc4)c2O)OC(C)(C)C=C3)c1O,active: 14.1 µM and active: 2.12 µM,
O=C(O)c1cc2ccccc2oc1=O,"inconclusive: 89.1 µM [inhibitor, partial curve, poor fit]",
O=C(O)c1ccc(N=Cc2c(O)n(Cc3ccc(F)cc3)c(=O)[nH]c2=O)cc1,,inactive: 1.03%
CN(C)CCN(CC1CCCN(Cc2ccccc2F)C1)C(=O)Cc1ccc(F)c(F)c1 (configuration not stated),,inactive: 21.8% [at 102 µM]
CC(C)NS(=O)(=O)c1ccc(OCC(=O)N2CCN(C)CC2)cc1,"inconclusive: 70.8 µM [inhibitor, partial curve, poor fit]",
CCOC(=O)c1ccc2c(c1)n(CCO)c(C)[n+]2CC,active: 35.5 µM,

SMILES,Potency,"activity, negative = inhibition"
COc1cc(C(C#N)N2CCCCC2)ccc1O (configuration not stated),"inconclusive: 50.1 µM [inhibitor, partial curve]",
Cc1ccc(Cn2ccc(NC(=O)c3cc(-c4ccco4)on3)n2)cc1,"inconclusive: 15.8 µM [inhibitor, partial curve, poor fit]",
O=Cc1cn(Cc2ccccc2F)c2ccccc12,,inactive: -18.1%
COc1ccccc1N1CCN(Cc2ccccc2)CC1,,inactive: 7.49% [at 0.501 µM]
COc1ccc(CCN)cc1O,"inconclusive: 70.8 µM [inhibitor, single point]",
Cn1c(N)c(Sc2ccccc2[N+](=O)[O-])c(=O)n(C)c1=O,active: 44.7 µM,
CCN(CC)c1ccc(C=C2C(=O)N(C)C(=S)N(C)C2=O)o1,active: 20 µM,
CCN1C(=O)NC(=O)/C(=C/c2cc(C)n(-c3sc(C)c(C)c3C#N)c2C)C1=O,,inactive: -33.2%
CCOc1cc2c(cc1OCC)-n1cccc1C(c1ccc(OC)cc1)NC2 (configuration not stated),"inconclusive: 79.4 µM [inhibitor, single point]",
Cc1ccc(CSCCNS(=O)(=O)c2ccc([N+](=O)[O-])cc2)cc1,"inconclusive: 7.08 µM [inhibitor, full curve]",
COc1ccc(-n2c(C)nc3ccccc3c2=O)c([N+](=O)[O-])c1,,inactive: -2.36% [at 102 µM]
COc1cccc(OCCNC(=O)c2cc([N+](=O)[O-])cc([N+](=O)[O-])c2)c1,"inconclusive: 79.4 µM [inhibitor, partial curve, poor fit]",
O=[N+]([O-])c1ccc(N2CCCNCC2)c2ncccc12,"inconclusive: 89.1 µM [inhibitor, single point]",
CCN(CC)S(=O)(=O)c1ccc(N=Cc2c(O)n(-c3ccccc3)c(=O)[nH]c2=O)cc1,,inactive: -3.83%
O=C1C(=O)c2cccc3cccc1c23,"inconclusive: 79.4 µM [inhibitor, single point]",
CCCCc1ccc(NC(=O)c2ccc3c(c2)CCN3S(=O)(=O)CC)cc1,"inconclusive: 31.6 µM [inhibitor, single point]",
CC1CCN(c2nc(NCc3ccco3)nc(N)c2[N+](=O)[O-])CC1,active: 50.1 µM,
CCCN1CCO[C@@H]2c3cc(O)ccc3OC[C@H]21,active: 17.8 µM,
Nc1ccc(Oc2cccc(Oc3ccc(N)cc3)c2)cc1,active: 44.7 µM,
O=C1NC(=O)C(=Cc2ccc(OCCOc3ccc([N+](=O)[O-])cc3)cc2)C(=O)N1,active: 22.4 µM,
Cc1ccc(S(=O)(=O)NP(=O)(Oc2ccccc2)Oc2ccccc2)cc1,active: 56.2 µM,
CN(C)[C@@H]1C(=O)C(C(N)=O)=C(O)[C@]2(O)C(=O)C3=C(O)c4c(O)cccc4[C@@](C)(O)[C@H]3[C@H](O)[C@@H]12,active: 5.01 µM,
COc1ccc(CCNC(=O)c2c(N)n(CCN3CCOCC3)c3nc4ccccc4nc23)cc1OC,"inconclusive: 89.1 µM [inhibitor, single point]",
